Results taken from the supplement of paper PMC11417369.
The list shows a part of the results.

The sequences below were run on PF3D7_0420300 AP2 domain 1 (GST-tagged) (assay: gcPBM binding intensity (ln(normalized median fluorescence intensity)); higher = stronger DNA binding).
Procedure, shortened: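 Alexa488 anti-GST antibody, scanned at 488 nm, detected GST-tagged P. falciparum DNA-binding domains that had been expressed in E. coli and incubated for 1 h on an Agilent 4 × 180k array. The array carried primer-extended double-stranded 36-bp intergenic genomic probes and negative controls. Binding intensity is the highest Masliner-normalised natural-log median intensity across replicate spots of either orientation of each probe.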

| Sequence | gcPBM binding intensity (ln) |
| --- | --- |
| ATAATGTTTTATAATACACACATTATATATATAAAT [CACACA_site6101] | 9.38 |
| ACATGAATTTATATGTGTACTAACTATATTCTTAAA [XGTACX_site5966] | 9.1 |
| ATGAATAAATAGGTCACACACAAATATTTATAAATA [CACACA_site7186] | 9.86 |
| TATCTGTATTTATTCACACATATAAAATATAATTAA [CACACA_site5560] | 9.08 |
| TATATACAATATAGGTGTACATTTTTTTATCTATTT [XGTACX_site8431] | 9.32 |
| TCTGGCATATAATATTGTACACATATATATATATAT [XGTACX_site8182] | 9.61 |
| AACGGGGGTAGTTTTATGCACACGTTTATTAATGCT [CACACA_site3173] | 9.59 |
| GATATGAATATAGGTTGTACTATATATAAAGTATGT [XGTACX_site1877] | 9.35 |
| AAAGTACAAGTATAATCACACGTGTCTATTATATAC [CACACA_site4507] | 9.45 |
| TGTTTCTAAAAAAAAGGTACACATATATATAATATA [XGTACX_site3217] | 9.11 |
| GTAACCCACCAAAATGCACACATTAAAAAAAAAAAA [CACACA_site1046] | 9.2 |
| AAACCGTGGGAGCACACACACACACGCGCACATATA [CACACA_site6288] | 10.1 |
| ATAGTTTATACAAATAGTACGCACAAAAAAAAATAA [XGTACX_site6727] | 9.29 |
| TTTATCAAAATAAATGCACACAAATTGCACATATCT [CACACA_site8281] | 9.27 |
| TATATATTATATATATGTACATATTTATTTTATTTT [XGTACX_site6989] | 9.13 |
| AATACCGGAAAGCAAACACACATTTGAAAACCATAA [CACACA_site7761] | 9.75 |
| AAAAAATTTCAAATGACATAATGTAATTTCCCTTTT [GTGCAC_negctrl_site673] | 9.04 |
| TATATATAAACAAAATGTACATATTTGAGATACCCT [XGTACX_site2195] | 9.34 |
| ACACATACATACATATGTACATATATACATATATAC [XGTACX_site5559] | 9.48 |
| TTTTTATTTTTTATGTAATTTAAATAATTATTCAAA [CACACA_negctrl_site1549] | 8.95 |
| AGTAAACGATGATGTTGTACAAAAAGGATAATTTAA [XGTACX_site6698] | 9.43 |
| TACAAAAAAGAAGATATTCAAACAAAAACAAAAAAA [CACACA_negctrl_site1126] | 9.62 |

| Sequence | gcPBM binding intensity (ln) |
| --- | --- |
| CAATACTATTATTATAGTACGTATAAAATTATATAT [XGTACX_site4950] | 9.26 |
| TATCATAATAGACACAGTACATATATGTCTTAAATT [XGTACX_site8775] | 9.26 |
| TATATATATATGCTACGTACATATATATTATATATA [XGTACX_site7894] | 9.22 |
| GTATTCTTCTCTCCGTGTACATATATATGTATATAT [XGTACX_site803] | 9.67 |
| AACATTTTTAGATTATATTATTAAATAAGTAACTGC [XGTACX_negctrl_site326] | 9.19 |
| AGATATATATTTTATTGTACACATTAAAGTATAAAA [XGTACX_site7194] | 9.17 |
| AACACTTTAATTTATGCACACATATGGAACAACAGC [CACACA_site8241] | 9.71 |
| AAGTTTTTTATTTTTTGTACATAAAAAATAATAATT [XGTACX_site1755] | 8.92 |
| TATGTATTTATATATACACACTTCTGTGATACGAAA [CACACA_site5128] | 9.15 |
| TTTTTGTTTTTTTTTTGTACATATATATAAAAAATA [XGTACX_site1214] | 9.12 |
| TTTTTTTTAATATTTTACATTGTCTGTTAACAAATA [CACACA_negctrl_site599] | 9.14 |
| ATGAACATTTATAAATGTACTCACATATATATATTT [XGTACX_site6692] | 9.21 |
| TTTATATTTATCCAAAGTACTTTTTAAAAACATACC [XGTACX_site4518] | 8.92 |
| AAAAAAAAAAAAAAAACACACATTTGAAAGAAAGAA [CACACA_site3339] | 9.49 |
| TACACCCATGGACACACACACACGCATAAAAAAAAA [CACACA_site4933] | 9.93 |
| ATTTTTATTTTCTTTACACACCACATAATTTTTTTT [CACACA_site6092] | 9.75 |
| GCCACACTTTTCTGCACACATAAAAAATATATAAAT [CACACA_site578] | 9.62 |
| TATATCGTTATATAAACACACAATATGTTTTTTATA [CACACA_site7730] | 9.31 |
| CTTTTATGAAACAGTGCACACATAAAAATATATACA [CACACA_site8981] | 9.4 |
| CATAAGAGGAACTTTTGTACTTATATGTATATAGTA [XGTACX_site5836] | 9.02 |
| ATTTATTGACTATTTACACACATATTTATTAGAATA [CACACA_site6863] | 9.53 |
| GGGAGGATAGTTCACAGTACCCAGTAACTCTACGGA [XGTACX_site2558] | 9 |
